# Measurements: the supplement of paper PMC8728848
# The other results are listed elsewhere or left out.
# B1: Cohesin-hDCIR (Homo sapiens) (protein)
# chain: LDDLDAVRIKVDTVNAKPGDTVRIPVRFSGIPSKGIANCDFVYSYDPNVLEIIEIEPGDIIVDPNPDKSFDTAVYPDRKIIVFLFAEDSGTGAYAITKDGVFATIVAKVKEGAPNGLSVIKFVEVGGFANNDLVEQKTQFFDGGANVGDTTEPATPTTPVTTPTTTDDLDAASQKYSQLLEKKTTKELVHTTLECVKKNMPVEETAWSCCPKNWKSFSSNCYFISTESASWQDSEKDCARMEAHLLVINTQEEQDFIFQNLQEESAYFVGLSDPEGQRHWQWVDQTPYNESSTFWHPREPSDPNERCVVLNFRKSPKRWGWNDVNCLGPQRSVCEMMKIHLHHHHHH
# Columns and labels:
# Assay in all cases: glycan array binding signal (z-score within array); higher = stronger binding
# Conditions in all cases: glycan notation: IUPAC condensed, linker removed
# [1] = molecular target: GlcNAc(b1-3)Gal(b1-4)GlcNAc(b1-3)Gal(b1-4)GlcNAc(b1-2)Man(a1-3)[GlcNAc(b1-3)Gal(b1-4)GlcNAc(b1-3)Gal(b1-4)GlcNAc(b1-2)Man(a1-6)]Man(b1-4)GlcNAc(b1-4)[Fuc(a1-6)]GlcNAc
# In short: (§1)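 Arrays were curated from the Consortium for Functional Glycomics database, 3228 in total, and kept only where the protein sequence was available. Binding is expressed as a within-array Z-score. This score was averaged across arrays of the same protein sequence at different concentrations or buffers and across linkers, and negative values can be read as non-binding.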
# [2] = molecular target: GlcNAc(b1-3)Gal(b1-4)GlcNAc(b1-3)Gal(b1-4)GlcNAc(b1-2)[GlcNAc(b1-3)Gal(b1-4)GlcNAc(b1-3)Gal(b1-4)GlcNAc(b1-6)]Man(a1-6)[GlcNAc(b1-3)Gal(b1-4)GlcNAc(b1-3)Gal(b1-4)GlcNAc(b1-2)Man(a1-3)]Man(b1-4)GlcNAc(b1-4)[Fuc(a1-6)]GlcNAc
# In short: as §1
# [3] = molecular target: GlcNAc(b1-3)Gal(b1-4)GlcNAc(b1-3)Gal(b1-4)GlcNAc(b1-3)Gal(b1-4)GlcNAc(b1-2)Man(a1-3)[GlcNAc(b1-3)Gal(b1-4)GlcNAc(b1-3)Gal(b1-4)GlcNAc(b1-3)Gal(b1-4)GlcNAc(b1-2)Man(a1-6)]Man(b1-4)GlcNAc(b1-4)GlcNAc
# In short: as §1
# [4] = molecular target: GlcNAc(b1-3)Gal(b1-4)GlcNAc(b1-3)Gal(b1-4)GlcNAc(b1-3)Gal(b1-4)GlcNAc(b1-2)Man(a1-3)[GlcNAc(b1-3)Gal(b1-4)GlcNAc(b1-3)Gal(b1-4)GlcNAc(b1-3)Gal(b1-4)GlcNAc(b1-2)Man(a1-6)]Man(b1-4)GlcNAc(b1-4)[Fuc(a1-6)]GlcNAc
# In short: as §1
# [5] = molecular target: GlcNAc(b1-3)Gal(b1-4)GlcNAc(b1-3)Gal(b1-4)GlcNAc(b1-3)Gal(b1-4)GlcNAc(b1-2)[GlcNAc(b1-3)Gal(b1-4)GlcNAc(b1-3)Gal(b1-4)GlcNAc(b1-3)Gal(b1-4)GlcNAc(b1-6)]Man(a1-6)[GlcNAc(b1-3)Gal(b1-4)GlcNAc(b1-3)Gal(b1-4)GlcNAc(b1-3)Gal(b1-4)GlcNAc(b1-2)Man(a1-3)]Man(b1-4)GlcNAc(b1-4)[Fuc(a1-6)]GlcNAc
# In short: as §1
# [6] = molecular target: GlcNAc(b1-3)Gal(b1-4)GlcNAc(b1-3)Gal(b1-4)GlcNAc(b1-3)Gal(b1-4)GlcNAc(b1-3)Gal(b1-4)GlcNAc(b1-2)Man(a1-3)[GlcNAc(b1-3)Gal(b1-4)GlcNAc(b1-3)Gal(b1-4)GlcNAc(b1-3)Gal(b1-4)GlcNAc(b1-3)Gal(b1-4)GlcNAc(b1-2)Man(a1-6)]Man(b1-4)GlcNAc(b1-4)GlcNAc
# In short: as §1
# [7] = molecular target: GlcNAc(b1-3)Gal(b1-4)GlcNAc(b1-3)Gal(b1-4)GlcNAc(b1-3)Gal(b1-4)GlcNAc(b1-3)Gal(b1-4)GlcNAc(b1-2)Man(a1-3)[GlcNAc(b1-3)Gal(b1-4)GlcNAc(b1-3)Gal(b1-4)GlcNAc(b1-3)Gal(b1-4)GlcNAc(b1-3)Gal(b1-4)GlcNAc(b1-2)Man(a1-6)]Man(b1-4)GlcNAc(b1-4)[Fuc(a1-6)]GlcNAc
# In short: as §1
# [8] = molecular target: GlcNAc(b1-3)Gal(b1-4)GlcNAc(b1-3)Gal(b1-4)GlcNAc(b1-3)Gal(b1-4)GlcNAc(b1-3)Gal(b1-4)GlcNAc(b1-2)[GlcNAc(b1-3)Gal(b1-4)GlcNAc(b1-3)Gal(b1-4)GlcNAc(b1-3)Gal(b1-4)GlcNAc(b1-3)Gal(b1-4)GlcNAc(b1-6)]Man(a1-6)[GlcNAc(b1-3)Gal(b1-4)GlcNAc(b1-3)Gal(b1-4)GlcNAc(b1-3)Gal(b1-4)GlcNAc(b1-3)Gal(b1-4)GlcNAc(b1-2)Man(a1-3)]Man(b1-4)GlcNAc(b1-4)[Fuc(a1-6)]GlcNAc
# In short: as §1
# [9] = molecular target: GlcNAc(b1-3)Gal(b1-4)GlcNAc(b1-3)Gal(b1-4)GlcNAc(b1-3)GalNAc
# In short: as §1
# [10] = molecular target: GlcNAc(b1-3)Gal(b1-4)GlcNAc(b1-3)GalNAc
# In short: as §1
# [11] = molecular target: GlcNAc(b1-3)Gal(b1-4)GlcNAc(b1-3)[GlcNAc(b1-3)Gal(b1-4)GlcNAc(b1-3)]GalNAc
# In short: as §1
# [12] = molecular target: GlcNAc(b1-3)Gal(b1-4)GlcNAc(b1-6)[Gal(b1-3)]GalNAc
# In short: as §1
# [13] = molecular target: GlcNAc(b1-3)Gal(b1-4)GlcNAc(b1-6)[GlcNAc(b1-3)Gal(b1-3)]GalNAc
# In short: as §1
# [14] = molecular target: GlcNAc(b1-3)Gal(b1-4)GlcNAc(b1-6)[GlcNAc(b1-3)]Gal(b1-4)GlcNAc
# In short: as §1
# GlcNAc(b1-3)GalNAc = molecular target: GlcNAc(b1-3)GalNAc
# In short: as §1
# GlcNAc(b1-3)Man = molecular target: GlcNAc(b1-3)Man
# In short: as §1
# [15] = molecular target: GlcNAc(b1-3)[GlcNAc(b1-4)][GlcNAc(b1-6)]GlcNAc
# In short: as §1
# [16] = molecular target: GlcNAc(b1-3)[GlcNAc(b1-6)]Gal(b1-4)GlcNAc
# In short: as §1
# [17] = molecular target: GlcNAc(b1-3)[GlcNAc(b1-6)]GalNAc
# In short: as §1
# [18] = molecular target: GlcNAc(b1-4)Gal(b1-4)GlcNAc
# In short: as §1
# GlcNAc(b1-4)GlcNAc = molecular target: GlcNAc(b1-4)GlcNAc
# In short: as §1
# [19] = molecular target: GlcNAc(b1-4)GlcNAc(b1-4)GlcNAc
# In short: as §1
# [20] = molecular target: GlcNAc(b1-4)GlcNAc(b1-4)GlcNAc(b1-4)GlcNAc(b1-4)GlcNAc
# In short: as §1
# [21] = molecular target: GlcNAc(b1-4)GlcNAc(b1-4)GlcNAc(b1-4)GlcNAc(b1-4)GlcNAc(b1-4)GlcNAc
# In short: as §1
# [22] = molecular target: GlcNAc(b1-4)[GlcNAc(b1-6)]GalNAc
# In short: as §1
# [23] = molecular target: GlcNAc(b1-6)Gal(b1-4)GlcNAc
# In short: as §1
# GlcNAc(b1-6)GalNAc = molecular target: GlcNAc(b1-6)GalNAc
# In short: as §1
# [24] = molecular target: GlcNAc6S(b1-3)Gal(b1-4)GlcNAc
# In short: as §1
# Kdn(a2-3)Gal(b1-3)GalNAc = molecular target: Kdn(a2-3)Gal(b1-3)GalNAc
# In short: as §1
# Kdn(a2-3)Gal(b1-3)GlcNAc = molecular target: Kdn(a2-3)Gal(b1-3)GlcNAc
# In short: as §1
# Kdn(a2-3)Gal(b1-4)Glc = molecular target: Kdn(a2-3)Gal(b1-4)Glc
# In short: as §1
# Kdn(a2-3)Gal(b1-4)GlcNAc = molecular target: Kdn(a2-3)Gal(b1-4)GlcNAc
# In short: as §1
# [25] = molecular target: Kdn(a2-3)Gal(b1-4)[Fuc(a1-3)]GlcNAc
# In short: as §1
# Kdn(a2-6)Gal(b1-4)GlcNAc = molecular target: Kdn(a2-6)Gal(b1-4)GlcNAc
# In short: as §1
# [26] = molecular target: Man(a1-2)Man(a1-2)Man(a1-3)Man
# In short: as §1
# [27] = molecular target: Man(a1-2)Man(a1-2)Man(a1-6)[Man(a1-3)]Man
# In short: as §1
# Man(a1-2)Man(a1-3)Man = molecular target: Man(a1-2)Man(a1-3)Man
# In short: as §1
# [28] = molecular target: Man(a1-2)Man(a1-3)[Man(a1-2)Man(a1-6)]Man
# In short: as §1
binder,measurement,setting,value
B1,glycan array binding signal (z-score),[1],-0.019
same,glycan array binding signal (z-score),[2],-0.575
same,glycan array binding signal (z-score),[3],0.39
same,glycan array binding signal (z-score),[4],0.219
same,glycan array binding signal (z-score),[5],-0.539
same,glycan array binding signal (z-score),[6],2.58
same,glycan array binding signal (z-score),[7],0.315
same,glycan array binding signal (z-score),[8],-0.597
same,glycan array binding signal (z-score),[9],0.446
same,glycan array binding signal (z-score),[10],-0.165
same,glycan array binding signal (z-score),[11],-0.523
same,glycan array binding signal (z-score),[12],-0.024
same,glycan array binding signal (z-score),[13],-0.546
same,glycan array binding signal (z-score),[14],-0.659
same,glycan array binding signal (z-score),GlcNAc(b1-3)GalNAc,-0.415
same,glycan array binding signal (z-score),GlcNAc(b1-3)Man,-0.284
same,glycan array binding signal (z-score),[15],-0.436
same,glycan array binding signal (z-score),[16],-0.625
same,glycan array binding signal (z-score),[17],-0.401
same,glycan array binding signal (z-score),[18],-0.214
same,glycan array binding signal (z-score),GlcNAc(b1-4)GlcNAc,-0.363
same,glycan array binding signal (z-score),[19],-0.508
same,glycan array binding signal (z-score),[20],-0.508
same,glycan array binding signal (z-score),[21],-0.594
same,glycan array binding signal (z-score),[22],-0.616
same,glycan array binding signal (z-score),[23],0.077
same,glycan array binding signal (z-score),GlcNAc(b1-6)GalNAc,4.02
same,glycan array binding signal (z-score),[24],-0.396
same,glycan array binding signal (z-score),Kdn(a2-3)Gal(b1-3)GalNAc,0.042
same,glycan array binding signal (z-score),Kdn(a2-3)Gal(b1-3)GlcNAc,-0.702
same,glycan array binding signal (z-score),Kdn(a2-3)Gal(b1-4)Glc,-0.606
same,glycan array binding signal (z-score),Kdn(a2-3)Gal(b1-4)GlcNAc,-0.662
same,glycan array binding signal (z-score),[25],-0.218
same,glycan array binding signal (z-score),Kdn(a2-6)Gal(b1-4)GlcNAc,-0.508
same,glycan array binding signal (z-score),[26],-0.287
same,glycan array binding signal (z-score),[27],-0.544
same,glycan array binding signal (z-score),Man(a1-2)Man(a1-3)Man,-0.462
same,glycan array binding signal (z-score),[28],-0.698
